Whole data set: some 33,000 sequences, median “E-score (-0.5 to 0.5)” near -0.054, cut for the highest 2% near 0.35. This is one part of the list.
What follows are sequences tested against T1, Stb5 (UniProt P38699) (assay: PBM E-score (8-mer binding enrichment) (E-score (-0.5 to 0.5)); higher = stronger / more preferred TF binding; most listed sequences are background and not binding sites). Settings: protein concentration: 200 nM; construct: GST-full length.
T1 sequence: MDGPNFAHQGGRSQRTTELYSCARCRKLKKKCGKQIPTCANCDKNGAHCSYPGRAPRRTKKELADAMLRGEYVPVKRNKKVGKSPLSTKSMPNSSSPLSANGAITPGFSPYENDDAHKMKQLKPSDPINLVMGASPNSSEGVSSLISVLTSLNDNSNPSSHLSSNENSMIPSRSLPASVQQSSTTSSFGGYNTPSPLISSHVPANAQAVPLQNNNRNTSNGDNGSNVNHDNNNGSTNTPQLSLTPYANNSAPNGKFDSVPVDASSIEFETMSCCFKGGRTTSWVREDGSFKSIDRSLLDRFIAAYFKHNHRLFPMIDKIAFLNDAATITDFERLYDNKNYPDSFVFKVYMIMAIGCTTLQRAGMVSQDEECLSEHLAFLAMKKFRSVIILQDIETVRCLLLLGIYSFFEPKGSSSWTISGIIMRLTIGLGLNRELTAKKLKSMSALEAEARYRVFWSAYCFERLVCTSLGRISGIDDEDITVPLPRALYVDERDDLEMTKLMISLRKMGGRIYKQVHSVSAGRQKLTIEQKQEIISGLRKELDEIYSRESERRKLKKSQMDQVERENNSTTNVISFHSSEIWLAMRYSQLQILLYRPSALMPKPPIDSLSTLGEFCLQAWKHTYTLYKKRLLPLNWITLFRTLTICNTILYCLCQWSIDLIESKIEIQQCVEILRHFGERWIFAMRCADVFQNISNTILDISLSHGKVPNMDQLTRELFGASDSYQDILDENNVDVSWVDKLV
Method in brief: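 Bound GST-tagged yeast transcription factors, applied at about 100-200 nM to double-stranded universal all-10-mer Agilent arrays, were detected with fluorescent anti-GST. Scans were normalised with masliner. A modified Wilcoxon-Mann-Whitney statistic, the E-score, was assigned to each ungapped eight-base word pooled with its reverse complement by the Universal PBM Analysis Suite.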

| Sequence | PBM E-score |
| --- | --- |
| CGTCAGAA | -0.0428 |
| CTCCATGC | -0.296 |
| AATCCGCC | 0.192 |
| AAATGCTT | -0.122 |
| CCGATCGG | 0.413 |
| ACGGATGA | -0.148 |
| TCAGCACA | -0.247 |
| ATCCAGAT | 8e-05 |
| ACGTTAGT | -0.107 |
| CCCCTTCA | -0.234 |
| GGCTAGGA | -0.328 |
| GTTCGGAA | 0.221 |
| CAATCTGA | -0.151 |
| CTTTGTCC | 0.0835 |
| CAGCTCAC | -0.19 |
| ACCCCGCC | 0.463 |
| ACCAACAG | -0.0399 |
| CCCGCCCA | 0.258 |
| AACCTGGT | -0.135 |
| ACTAGCCT | -0.105 |
| ACCAGGAA | 0.00633 |
| ACACCCCT | -0.0768 |

| Sequence | PBM E-score |
| --- | --- |
| ACTAAGTG | -0.14 |
| TCTTGACA | -0.157 |
| CGGTCTAA | 0.23 |
| CGGGCGTA | 0.336 |
| GAGGAGCA | -0.244 |
| ATCGTTTC | -0.125 |
| CCAGAACA | -0.196 |
| AAAACTAG | 0.0889 |
| GCAAAGCC | -0.0499 |
| CATTATCC | 0.165 |
| CACGGTAC | 0.258 |
| GCGTTCTA | 0.019 |
| AAAGATGG | -0.106 |
| GAAGTATA | 0.0151 |
| GAGCATGA | -0.196 |
| CCTGCACC | -0.0601 |
| CAGATCCG | 0.144 |
| AAATAGCC | 0.165 |
| CACAACTG | -0.316 |
| GGCAGCAC | -0.124 |
| CTTGGAAC | -0.0483 |
| CGATGTTC | -0.0586 |

| Sequence | PBM E-score |
| --- | --- |
| GGTCCGGA | 0.391 |
| GAACAAGA | -0.0829 |
| GCGGCGCA | 0.19 |
| ATTGGTGC | 0.0845 |
| CTATACAA | -0.162 |
| TAATAATA | 0.0873 |
| CGGAGCGC | 0.164 |
| GTTCTGAA | -0.273 |
| CAGCACCA | -0.196 |
| TAGGCTCA | -0.198 |
| AATTGTGC | -0.0245 |
| CGGCCGCC | 0.178 |
| CCTATCGA | -0.243 |
| CTCCCACC | -0.126 |
| GAGGCCGA | 0.244 |
| CGTCAGGC | 0.0486 |
| GATGCCAA | -0.114 |
| CCACGACG | 0.00871 |
| CGTGCTCA | -0.0212 |
| TAATAGGA | 0.0539 |
| GCGTACGA | -0.0889 |
| CGTCTAGA | -0.0355 |

| Sequence | PBM E-score |
| --- | --- |
| ACTTTATG | -0.0536 |
| GGCCGGCA | 0.289 |
| TGACCACA | -0.365 |
| CGATAGAG | -0.0108 |
| CGCACTCA | 0.055 |
| ATTCCAAA | -0.284 |
| AAACATAG | -0.191 |
| ACTTCTAG | 0.0518 |
| CCATTGTC | -0.0474 |
| AAGTGCGG | 0.217 |
| ACAATAGA | -0.112 |
| ACATGTTC | -0.0736 |
| GCCAGTAA | -0.0797 |
| ATTGGGGG | -0.221 |
| AGCCGTAG | -0.0748 |
| ATTCGCCG | 0.248 |
| CGACACCA | 0.0464 |
| CGCGTAAG | 0.0432 |
| GTAGCGAA | -0.207 |
| CAATTATC | 0.215 |

From the supplement of paper PMC3334620
